Measurements taken from PubChem BioAssay AID686978 (National Center for Advancing Translational Sciences (NCATS), 2013).
Several values for one entry are separate records, joined by “and”; a condition that tells them apart may be missing. Equal entries are not always repeated. Hit rate of the full screen: of about 420,000 compounds, about 64,000 (15%) were called active. The inconclusive results got no clear call from the source; some entries with a clear call stand among them for comparison. The call rests on the fitted dose curve; in most records, active means well fitted inhibition curve with a large enough effect; inconclusive means small, poorly fitted or top-dose-only effect; inactive means flat fitted curve, though single readings scatter. No potency is given beside an inconclusive call; the fits are too rough.
On the % scale 0 is the no-effect control and ±100 the full control effect; potency means the concentration at half of the fitted maximal effect; tags describe the fitted curve by direction and shape.

Assay: qHTS for Inhibitors of human tyrosyl-DNA phosphodiesterase 1 (TDP1): qHTS in cells in absence of CPT; further: nearly all actives have a fitted effect of over 55% in size
Conditions: DT40 Tdp1-/- hTDP1 cells, no CPT, ATP luminescence, 48 h; activity change, negative = growth inhibition: at 46.2 µM (top of the series) unless noted
Summary of the method: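 Readout: luminescence from CellTiter-Glo after 30 min in the dark at RT. Cells: DT40 Tdp1-/- with stable hTDP1, 400/well. Exposure: compounds alone, ≥48 hr, 37 °C.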
In the case of `COc1ccc(-n2nc(C(=O)NCC(=O)Nc3cc(OC)c(OC)c(OC)c3)c3ccccc3c2=O)cc1`, the Potency is reported as inconclusive [inhibitor, single point]. For `CCCC1Cc2nc(N3CCCCC3)c(C#N)cc2CO1` (stereo not given), the Potency was inconclusive [inhibitor, partial curve, poor fit]. With `Cc1ccc(C)c(N2CCN(C(=O)Cc3cn(C)c4ccccc34)CC2)c1` the Potency was inconclusive [inhibitor, single point]. For `CCCCC(=O)NC(=S)NNC(=O)CCc1ccccc1`, the Potency was active: 20.6 µM. With `Cc1cc(Cl)c(OCCN2C(=O)NC(C)(C)C2=O)c(Br)c1` the “activity change, negative = growth inhibition” value was inactive: -23.1%. With `COc1cccc(-c2n[nH]c3c2C(c2cccc(O)c2)N(C)C3=O)c1` (stereo not given) the Potency was inconclusive [inhibitor, single point]. With `CCN(CC)c1ccc(N=C2C=CC(=O)C=C2NC(C)=O)cc1` the Potency was active: 2.91 µM. In the case of `Cc1onc(-c2ccccc2)c1C(=O)NNC(=S)NC(=O)c1ccc(Br)cc1`, the Potency is reported as inconclusive [inhibitor, single point]. In the case of `CCOc1ccccc1N1CCN(C(=S)Nc2ccc(S(N)(=O)=O)cc2)CC1`, the Potency is reported as inconclusive [inhibitor, single point]. With `CCOc1cc(C)c(Cl)cc1S(=O)(=O)NCc1ccc2c(c1)OCO2` the Potency was inconclusive [inhibitor, single point]. In the case of `CCc1cccc(N=c2c([N+](=O)[O-])nn(-c3ccc4c(c3)OCCO4)n2O)c1`, the Potency is reported as active: 3.26 µM. In the case of `COc1ccccc1/C=C(/CC(=O)NCc1ccccc1)c1nc2ccccc2s1`, the Potency is reported as inconclusive [inhibitor, single point]. In the case of `NC(=O)[C@H]1CC2(CC(c3cccc(NC(=O)COc4ccc(Cl)cc4)c3)=NO2)CN1C(=O)c1ccc(Cl)cc1` (stereo not given in full), the Potency is reported as inconclusive [inhibitor, partial curve, poor fit]. In the case of `COc1ccccc1CCN=C(N)NS(=O)(=O)c1ccc(C)cc1`, the Potency is reported as inconclusive [inhibitor, single point]. In the case of `Cc1c2cnn(-c3ccccc3)c(=O)c2c(C)n1CC(=O)N1CCN(c2cccc(Cl)c2)CC1`, the Potency is reported as active: 13 µM. For `CCCC(C(=O)NCc1ccco1)N(C(=O)CNS(=O)(=O)c1ccccc1)c1ccccc1OC` (stereo not given), the Potency was inconclusive [inhibitor, partial curve]. With `O=C(NNC(=O)c1cc(Br)ccc1Cl)c1csc(N2CCOCC2)n1` the “activity change, negative = growth inhibition” value was inactive: 1.54%. In the case of `CCOc1cc(OCC)cc(C(=O)Nc2cccc(C(C)=O)c2)c1`, the Potency is reported as inconclusive [inhibitor, single point]. With `CCN(CC)C(=O)C1=C(C)N(Cc2ccc(C(C)(C)C)cc2)C(=O)C(CC(=O)NC2CCCCC2)C1` (stereo not given) the Potency was active: 11.6 µM. In the case of `O=C(Nc1ccccc1N1CCOCC1)c1ccc([N+](=O)[O-])s1`, the Potency is reported as active: 16.4 µM. With `O=C(COC(=O)COc1ccc(Br)cc1)NCc1ccccc1` the “activity change, negative = growth inhibition” value was inactive: 1.22%. In the case of `COc1ccc(CNC(=O)c2cnn(-c3ccc(OC)cc3)c2C2CCN(C(=O)OC(C)(C)C)CC2)cc1`, the Potency is reported as inconclusive [inhibitor, single point]. In the case of `Cc1ccccc1OCCC(=O)OCC(=O)Nc1ccc(C(N)=O)cc1`, the Potency is reported as inconclusive [inhibitor, partial curve, poor fit]. In the case of `COc1ccccc1NC(=O)NCc1nc(-c2ccc(C(F)(F)F)cc2)no1`, the Potency is reported as inconclusive [inhibitor, single point]. For `CN(CC(=O)Nc1cccc(C(F)(F)F)c1)Cc1ccccc1`, the Potency was active: 9.2 µM. For `Cc1cc(Br)ccc1OCCOCCN1CCCC1`, the Potency was inconclusive [inhibitor, single point]. For `CCC(=O)Nc1cc(-c2nc3cc(C)cc(C)c3o2)ccc1C`, the Potency was inconclusive [inhibitor, single point]. In the case of `CCC(=O)Nc1ccc(C=C(C(C)=O)C(C)=O)cc1`, the Potency is reported as inconclusive [inhibitor, partial curve]. With `Cc1cccc2c1-c1sc(C(=O)Nc3ccccc3C(N)=O)cc1CO2` the Potency was inconclusive [inhibitor, single point]. In the case of `Cc1ccc(CSCCNC(=O)CSCc2ccc([N+](=O)[O-])cc2)cc1`, the activity change, negative = growth inhibition is reported as inconclusive: -31.4% [inhibitor]. For `CSc1nc(N2CCOCC2)c2ccccc2n1`, the “activity change, negative = growth inhibition” value was inactive: -10.2%. For `CCc1ccccc1NC(=O)CN1CCN(C(=O)C(C)NC(=O)c2ccc(Cl)cc2)CC1` (stereo not given), the Potency was inconclusive [inhibitor, single point]. With `CCCCOc1ccc(S(=O)(=O)Nc2ccc(-c3ccc(N4CCCCC4)nn3)cc2)cc1` the Potency was active: 20.6 µM. For `O=C1c2oc3ccccc3c(=O)c2C(c2ccccc2F)N1Cc1ccc2c(c1)OCO2` (stereo not given), the Potency was inconclusive [inhibitor, partial curve]. For `CC(C)(C)OC(=O)N1CCN(c2ccc(CNC(=O)c3ccc(Cl)cc3)cc2)CC1`, the Potency was inconclusive [inhibitor, partial curve]. In the case of `CCN(CC)c1nc(Oc2ccc(C(=O)OC)cc2)nc(N2CCOCC2)n1`, the Potency is reported as inconclusive [inhibitor, partial curve, poor fit]. For `CCc1cc2c(cc3c(=O)n(CC(=O)NC4CCC(C)CC4)nc(CC)n32)s1` (stereo not given), the Potency was inconclusive [inhibitor, single point]. In the case of `CCN(CC)S(=O)(=O)c1ccc(C)c(NC(=O)COc2ccc(Br)cc2Cl)c1`, the Potency is reported as inconclusive [inhibitor, single point]. For `CCOc1cc(C(=S)N2CCCCC2)ccc1OS(=O)(=O)c1ccc(Br)cc1`, the Potency was active: 18.4 µM. For `CCc1ccccc1NC(=O)CN(C)C(=O)c1cc(C2CC2)nn1-c1ccccc1`, the “activity change, negative = growth inhibition” value was inactive: -15.7%. For `COc1ccc(NC(=O)C2CCN(S(=O)(=O)c3cccc4nonc34)CC2)c(OC)c1`, the “activity change, negative = growth inhibition” value was inactive: -25.2%. With `CCCN(CCC)C(=O)CCSCCC(=O)N(CCC)CCC` the Potency was inconclusive [inhibitor, single point]. For `Cc1cc(C)cc(NC(c2cccc(Cl)c2)c2nnc(-c3ccccc3)o2)c1` (stereo not given), the Potency was inconclusive [inhibitor, single point]. For `NNc1nc2c(Cl)ccc(Cl)c2s1`, the Potency was inconclusive [inhibitor, single point]. In the case of `Cc1ccc(N(CC(O)CN2CCCCC2)S(=O)(=O)c2ccc(C)cc2)cc1` (stereo not given), the “activity change, negative = growth inhibition” value is reported as inactive: -3.47%. With `COc1ccc(NC(=O)Cn2ccn(Cc3ccccc3)c(=O)c2=O)cc1Cl` the “activity change, negative = growth inhibition” value was inactive: 30.8%. In the case of `Cc1nnc(NCCO)c2ccccc12`, the “activity change, negative = growth inhibition” value is reported as inactive: -3.13%. For `CC(=O)c1cccc(CN(C)CC2CCCN(CCc3ccccc3C)C2)c1` (stereo not given), the Potency was inconclusive [inhibitor, single point]. For `Cc1ccc(S(=O)(=O)N2CCN(Cc3cc(=O)n4ccccc4n3)CC2)c(C)c1`, the “activity change, negative = growth inhibition” value was inactive: -2.04%. For `O=C(CN1CCN(S(=O)(=O)c2ccc3ccccc3c2)CC1)Nc1ccc2c(c1)CCC2`, the Potency was inconclusive [inhibitor, single point]. In the case of `CCOc1ccc(C(NC(C)=O)c2cc(Cl)c3cccnc3c2O)cc1` (stereo not given), the Potency is reported as active: 3.98 µM. In the case of `CN1CC=C2C(C#N)=C(N)C(C#N)(C#N)[C@H](c3cccs3)[C@H]2C1`, the Potency is reported as active: 14.6 µM. For `CCN(CC)CCNC(=O)c1sc2nc(C)cc(C)c2c1-n1cccc1`, the Potency was inconclusive [inhibitor, single point]. In the case of `Cc1ccc(-c2n[nH]c(=S)n2/N=C/c2ccncc2)cc1`, the Potency is reported as inconclusive [inhibitor, single point]. With `Cc1csc(SCC(=O)Nc2ccc3c(c2)OCCO3)n1` the “activity change, negative = growth inhibition” value was inactive: -6.6%. For `C=CCNC(=S)N1CCC(C(=O)c2ccc(OC)cc2)CC1`, the Potency was inconclusive [inhibitor, partial curve]. In the case of `COc1ccc(C)cc1-n1nnnc1SCC(=O)Nc1cc(C)on1`, the Potency is reported as inconclusive [inhibitor, single point]. With `CCOc1cccc2cc(C(=O)NCc3ccc(Cl)cc3)c(=N)oc12` the Potency was inconclusive [inhibitor, single point]. With `COc1ccc(CCNS(=O)(=O)c2cc3c(cc2C)NC(=O)CO3)cc1OC` the “activity change, negative = growth inhibition” value was inactive: -7.25%. For `Clc1ccccc1-c1nnc2sc(-c3ccccn3)nn12`, the Potency was inconclusive [inhibitor, single point]. For `CC1CCCN(S(=O)(=O)c2cc3c4c(c2)CCN4C(=O)CC3)C1` (stereo not given), the “activity change, negative = growth inhibition” value was inactive: -27.6%. In the case of `CSCCC(NC(=O)c1ccco1)C(=O)N1CC=C(c2ccccc2)CC1` (stereo not given), the Potency is reported as inconclusive [inhibitor, single point]. For `O=c1[nH]cnc2c1ncn2Cc1ccc([N+](=O)[O-])cc1`, the “activity change, negative = growth inhibition” value was inactive: -2.34%. For `Cc1ccccc1SCC(=O)OCC(=O)N(C)c1c(N)n(Cc2ccccc2)c(=O)[nH]c1=O`, the “activity change, negative = growth inhibition” value was inactive: -15.4%. In the case of `Cc1ccc(CN2CCN(CC(=O)N/N=C/c3c[nH]c4ccccc34)CC2)cc1`, the “activity change, negative = growth inhibition” value is reported as inactive: -16.5%. In the case of `Cc1ccc(N(C)S(=O)(=O)c2ccc(-c3cnc(C4CC4)o3)cc2)cc1`, the Potency is reported as active: 580 nM and active: 18.4 nM. For `COc1ccc(Nc2nc(-c3ccccc3)c3cc(Br)ccc3n2)cc1`, the Potency was inconclusive [inhibitor, single point]. With `COc1ccc(Br)cc1C(=O)Nc1cccc(-c2nnc(-c3ccco3)o2)c1` the Potency was inconclusive [inhibitor, single point]. In the case of `CC(Sc1ccc2c(c1)OCCO2)C(=O)Nc1ccc(N2CCOCC2)cc1` (stereo not given), the “activity change, negative = growth inhibition” value is reported as inactive: -5.83%. With `CCn1c(CN2CCCCC2)nc2cc(NC(=O)COc3cc(C)ccc3C(C)C)ccc21` the Potency was inconclusive [inhibitor, single point].
